Screen size: about 310,000 compounds; about 14,000 (4.5%) showed an effect of 50% or more. Effects have a minus sign here. The list shows a part of the results. Where a SMILES comes first, the peptide text is derived from it. The star is where a group is joined. Boc = CC(C)(C)OC(=O)*
What follows are molecules tested against human ether-à-go-go-related gene (hERG) potassium channel (human, UniProt Q12809) (assay: primary screen, population patch clamp on CHO cells stably expressing hERG).
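Further: peak tail current of the secondary pulse compared with the same well before compound.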

Chain of human ether-à-go-go-related gene (hERG) potassium channel (Q12809 whole entry, looked up): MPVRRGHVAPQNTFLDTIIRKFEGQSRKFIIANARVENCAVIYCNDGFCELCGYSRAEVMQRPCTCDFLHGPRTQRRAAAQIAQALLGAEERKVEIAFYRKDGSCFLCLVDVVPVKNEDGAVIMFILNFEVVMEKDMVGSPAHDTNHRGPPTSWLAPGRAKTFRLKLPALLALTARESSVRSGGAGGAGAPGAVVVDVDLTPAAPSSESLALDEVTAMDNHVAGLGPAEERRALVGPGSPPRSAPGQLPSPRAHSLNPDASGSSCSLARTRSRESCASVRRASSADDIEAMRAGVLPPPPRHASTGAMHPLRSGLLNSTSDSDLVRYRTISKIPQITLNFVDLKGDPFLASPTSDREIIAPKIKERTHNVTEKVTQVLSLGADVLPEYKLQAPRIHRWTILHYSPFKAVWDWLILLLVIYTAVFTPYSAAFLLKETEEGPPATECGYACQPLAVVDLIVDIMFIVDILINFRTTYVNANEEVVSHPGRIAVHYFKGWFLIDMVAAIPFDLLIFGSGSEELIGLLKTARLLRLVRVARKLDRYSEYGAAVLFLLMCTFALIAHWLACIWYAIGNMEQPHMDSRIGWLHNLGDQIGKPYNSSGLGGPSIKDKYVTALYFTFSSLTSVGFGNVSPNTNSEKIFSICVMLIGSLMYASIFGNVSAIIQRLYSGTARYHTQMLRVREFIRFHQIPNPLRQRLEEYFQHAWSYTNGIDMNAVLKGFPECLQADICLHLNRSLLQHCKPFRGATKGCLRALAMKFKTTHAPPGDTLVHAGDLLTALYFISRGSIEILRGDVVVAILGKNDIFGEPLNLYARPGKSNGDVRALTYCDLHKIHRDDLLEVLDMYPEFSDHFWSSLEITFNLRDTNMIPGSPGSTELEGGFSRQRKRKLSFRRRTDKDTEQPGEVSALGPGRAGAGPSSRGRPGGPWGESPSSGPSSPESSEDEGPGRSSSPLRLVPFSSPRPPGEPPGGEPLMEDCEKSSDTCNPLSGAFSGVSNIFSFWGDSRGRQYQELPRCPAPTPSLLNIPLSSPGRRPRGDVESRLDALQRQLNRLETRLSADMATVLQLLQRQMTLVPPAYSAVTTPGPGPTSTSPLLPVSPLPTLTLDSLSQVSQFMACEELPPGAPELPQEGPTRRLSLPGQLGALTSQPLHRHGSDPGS

| SMILES | hERG current change (%, negative = inhibition) at 10uM [%] |
| --- | --- |
| Oc1ccc(/C=N/Nc2cccc(Cl)n2)c(O)c1 | -6.6 |
| Cc1cc(N2C(=O)C(O)=C(C(=O)c3cc4ccccc4o3)C2c2cccs2)no1 (centres unmarked) | 23.6 |
| O=C(NN1C(=O)/C(=C\c2cccnc2)SC1=S)c1ccco1 | 0.819 |
| Cc1ccc2c(c1Cl)NC(C(=O)O)C1CC(Sc3ccccc3[N+](=O)[O-])C(Cl)C21 (centres unmarked) | -1.25 |
| CC(C(=O)N1CCc2ccccc21)n1cccc1 (centres unmarked) | 8.51 |
| COc1ccc(C(=O)NCCNc2ccc([N+](=O)[O-])cc2)cc1OC | -1.31 |
| c1ccc2c(OCCCCN3CCCC3)cccc2c1 | -27.1 |
| COc1ccccc1CNC(=O)C(C)Sc1ccc(C)cc1 (centres unmarked) | 5.38 |
| COc1ccc(C(=O)NCC2(c3ccccc3)CCOCC2)cc1 | 3.93 |
| CCN(CC)CCCCNc1ncc2cc(-c3cc(OC)cc(OC)c3)c(NC(=O)NC(C)(C)C)nc2n1 | -38.2 |
| CC1CN(C(=O)CCC(=O)NCc2ccccn2)c2ccccc2O1 (centres unmarked) | 18.2 |
| CC1(C)CNC(=O)CC(C)(C)N1 | 4.53 |
| Oc1[nH]c2ccccc2c1N=Nc1nc(Nc2ccccc2)nc(N2CCOCC2)n1 | -0.289 |
| CC(OC(=O)c1nn(C(C)C)c(=O)c2ccccc12)C(=O)Nc1ncc(Cl)cc1Cl (centres unmarked) | 5.08 |
| COc1ccccc1OCCn1cc(C(=O)C(C)C)c2ccccc21 | 10.7 |
| CC(C)c1ccc(N2CC(C)(C)C2=O)cc1 | 5.81 |
| O=C(CCc1ccccc1)NNC(=O)c1ccco1 | 5.99 |
| COc1ccc(CNC(=O)c2ccccc2C(=O)O)cc1 | -0.722 |
| CCN(C(=O)CN1C(=O)c2ccccc2S1(=O)=O)C1CCCCC1 | -14.8 |
| COc1ccc(OCC(=O)NNC(=S)NC(=O)c2ccc([N+](=O)[O-])cc2)cc1 | 15.6 |
| O=C(CSc1nc2c(cnn2-c2ccccc2)c(=O)[nH]1)NC1CCS(=O)(=O)C1 (centres unmarked) | 14 |
| NC(=O)c1cc(C(=O)Cc2ccc(Cl)cc2)c[nH]1 | 12.5 |

| SMILES | hERG current change (%, negative = inhibition) at 10uM [%] |
| --- | --- |
| CCOC(=O)CC(NC(=O)c1cccs1)c1ccc(C)cc1 (centres unmarked) | 13.2 |
| O=S(=O)(c1ccccc1)c1cnc(-c2ccccc2)nc1N1CCCCC1 | 27.1 |
| O=C(NCCNC(=O)c1ccccn1)c1ccc(F)cc1 | 6.57 |
| NC(=O)C1CCN(CC(=O)Nc2cc(S(=O)(=O)N3CCOCC3)ccc2N2CCCC2)CC1 | -3.61 |
| Cc1ccc(-c2nn3cnnc3c3ccccc23)cc1 | -35.7 |
| COc1cccc(C2C(=O)c3ccccc3C2=O)c1 | 16.9 |
| CC(C)(C)c1cc(C(=S)N2CCCC2)cc(C(C)(C)C)c1O | -1.05 |
| COc1ccc(C(=O)NNC(=O)CSc2nnnn2C)cc1 | 21.3 |
| O=C(COC(=O)c1ccc(O)cc1)Nc1ccccc1-c1ccccc1 | 1.92 |
| O=C(Cn1cc(C(=O)c2cccs2)c2ccccc21)NC1CCCCC1 | -7.98 |
| Cn1cnnc1SCC(=O)NC1CCCCCC1 | 18.5 |
| O=C(NCc1ccc(F)cc1)C1CCCN1C(=O)Nc1ccc(Cl)cc1 (centres unmarked) | -4 |
| CC(C)c1nc(SCC(=O)Nc2cccc(C(F)(F)F)c2)c2c(=O)n(C)c(=O)n(C)c2n1 | -5.43 |
| CCCCCCn1c(N2CCC(C(N)=O)CC2)nc2c1c(=O)n(C)c(=O)n2C | -56.4 |
| Cc1ccc2nc(/C(C#N)=C/c3ccccc3C(=O)O)[nH]c2c1 | 8.51 |
| Cc1cnc(C)c(N2CCN(Cc3nc(-c4cccc(F)c4F)oc3C)CC2)n1 | -41.4 |
| COc1ccccc1C(=O)O/N=C(\c1ccccc1)c1ccncc1 | -14.4 |
| CCc1ccccc1NC(=S)NCCSc1ccc(Cl)cc1 | 5.35 |
| CC(=O)Nc1cccc(-c2csc(Nc3ccc(Cl)cn3)n2)c1 | 28.7 |
| COC(=O)C(Cc1ccccc1)NC(=O)C(CC(C)C)NC(=O)OC(C)(C)C (stereo not drawn) (Boc-Leu-Phe-OMe; configuration not given here) | 10.7 |
| COc1ccc(C2=NN(C(=O)CCCC(=O)O)C(c3cccs3)C2)cc1OC (centres unmarked) | 17.1 |
| COc1c2ccoc2nc2c(OC)c(OCC(O)C(C)(C)O)ccc12 (centres unmarked) | 22.5 |

Source: PMC4336329 (PLoS ONE, 2015)
